This is one part of the list.
System: PfSIP2 AP2 domain 1 (GST-tagged)
Test: gcPBM binding intensity (ln(normalized median fluorescence intensity)); higher = stronger DNA binding
In short: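 An Agilent 4 × 180k array carrying primer-extended double-stranded 36-bp intergenic genomic probes and negative controls received GST-tagged P. falciparum DNA-binding domains expressed in E. coli, about 25 μg on average, for 1 h. The binding buffer contained 1× PBS, 1% milk, 0.2 mg/ml BSA, 0.5% salmon testes DNA and 0.03% Triton X-100. Binding intensity is the top Masliner-normalised natural-log median intensity across replicate spots of either probe orientation, read after Alexa488 anti-GST antibody staining and a 488 nm scan.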

First: TTTGGCTAGTTAGGCCGTACATGTAAATAATATATA [XGTACX_site1138]
Second: AATGAATGTAAGAAAATACACACTAGTATAGTAACA [CACACA_site1955]
The “gcPBM binding intensity (ln)” value of the first is higher: 7.13 for the first, 6.87 for the second.

Compared with “TTGGAAAAAGTGAAATGTACATATATATTTATTATT [XGTACX_site6946]”, AAAGGATTTATACTAGTGCAAAAATATAAAAATATA is higher in “gcPBM binding intensity (ln)” value: 6.99 for the first, 8.04 for the second.

First: AATAATAAAGTGAACACACACATATAACATCTATAT [CACACA_site7868]
Second: GAAGTTTTTTAAAGATGTACTTTTTAAAAATAATCT [XGTACX_site263]
The “gcPBM binding intensity (ln)” value of the first is lower: 6.97 for the first, 7.2 for the second.

First: AATATAAATACTCCTACACACATATATATATATATA [CACACA_site3010]
Second: GACACAAAAAAATAATAATAATAATAATAATAAATA [XGTACX_negctrl_site145]
The “gcPBM binding intensity (ln)” value of the first is higher: 9.39 for the first, 6.82 for the second.

First: ACAAATACAAAAAAAGGTACACACATAATATATTTA [XGTACX_site5515]
Second: TTTGTTTTTAATTTCGCACACACCTTGTGGAAAAAA [CACACA_site577]
The “gcPBM binding intensity (ln)” value of the first is lower: 7.04 for the first, 7.37 for the second.

Going from “AAATATTTTATACTTGCACACAAAATATATTAAAAT [CACACA_site8606]” to “TTCTTATAAATATACACACACAAAATATCTACAATG [CACACA_site6487]”, the “gcPBM binding intensity (ln)” value falls from 7.33 to 7.09.

First: TGTGTAAGATCTTGGATGATGATAAGAATCTACTAG [CACACA_negctrl_site1167]
Second: CCTTAAAATAAGATATGTACGCAAAGGAAAACAAAG [XGTACX_site6057]
The “gcPBM binding intensity (ln)” value of the first is lower: 6.88 for the first, 7.62 for the second.

First: TTATAAGATTTATGTACACACATATACTCACCTCTA [CACACA_site729]
Second: TGCTATAATTTATATACACACAAATATATACGCATA [CACACA_site4096]
The “gcPBM binding intensity (ln)” value of the first is lower: 7.04 for the first, 7.09 for the second.

Compared with TATGTATGTGCTTGTGCGCACCGATAATATAGCCAA, “TCTCATAGTAGACACACACACACACGCACATATATA [CACACA_site6916]” is lower in “gcPBM binding intensity (ln)” value: 9.96 for the first, 7.2 for the second.

First: ACATAAGACACAAATACACACAAAAATATGTAACAA [CACACA_site7836]
Second: TTTTATGAAAAGTATTGTACGTATAATTTATATGTA [XGTACX_site1639]
The “gcPBM binding intensity (ln)” value of the first is higher: 7.07 for the first, 7.04 for the second.

Compared with “TATATAAATAGACACACACACACCTTATAATTACTA [CACACA_site7828]”, “ATAATAATTAACCTATGTACATAGGAAAGTCATAAA [XGTACX_site4387]” is higher in “gcPBM binding intensity (ln)” value: 7.02 for the first, 7.06 for the second.

First: AAAAAAAAAAAACACACACACACATACACATACATA [CACACA_site2858]
Second: GAAGAAAAATAAAAAGTGCAAAAAAAGTAAAAATTT [GTGCAC_site9897]
The “gcPBM binding intensity (ln)” value of the first is lower: 7.25 for the first, 8.02 for the second.

First: TACTTGTTATTAACATGTACAAAAAAAAAAAAAATT [XGTACX_site1338]
Second: AAACAATATTCTCAAGTGCAAAAAGAAAAAAGAAAT
The “gcPBM binding intensity (ln)” value of the first is lower: 6.89 for the first, 7.78 for the second.

First: TTTATTTTTATTTAAAGTACATATCCATTTATTCCT [XGTACX_site1914]
Second: AATGTACCCACACCCACACACAAACAAATATATATA [CACACA_site2751]
The “gcPBM binding intensity (ln)” value of the first is lower: 7.07 for the first, 7.47 for the second.

Going from ATAGGATGCATATGAGTGCATTCTGTGTTGTTATAA to “AGATTAAAATATATACGTACATATTATTAATTAATA [XGTACX_site3487]”, the “gcPBM binding intensity (ln)” value falls from 10.1 to 7.16.

Compared with “TAATGTATTATATTTTGTTTTCTTCCACCAAAAAAA [XGTACX_negctrl_site64]”, “AAAAAAAAAATTAAATGTACACACACCTTAAACAAT [XGTACX_site3848]” is lower in “gcPBM binding intensity (ln)” value: 7 for the first, 6.96 for the second.

First: ATTTTCTTATATATATTTTGTATATATTTTGTACAT [CACACA_negctrl_site1496]
Second: ACCCATATAATATATACACACATATATATATATATA [CACACA_site4731]
The “gcPBM binding intensity (ln)” value of the first is lower: 7.15 for the first, 8.96 for the second.

Going from “TAAAAATTGAAGCACACACACAAAAGAAATACAATA [CACACA_site1113]” to “TTTTTTTTTACTTGTTGTACTTTTTCAAGGTATTGT [XGTACX_site7778]”, the “gcPBM binding intensity (ln)” value rises from 6.98 to 7.07.

First: ATATAAAAAAATTGCACACATAAATAAATACAGATA [CACACA_site4806]
Second: CTACCTTTAATATATACACACACATAAAAAAAATAT [CACACA_site8548]
The “gcPBM binding intensity (ln)” value of the first is lower: 7.28 for the first, 7.44 for the second.

First: ATATATATATATAATAAACACACAAATAGATATAAC [CACACA_site9234]
Second: TATATATATATATATACATGCATACATATACATACA [TGCATGCA_site897]
The “gcPBM binding intensity (ln)” value of the first is higher: 9.02 for the first, 9.01 for the second.

First: AGATAAGATATATACACACACATAAATACGTACAAA [CACACA_site6639]
Second: ATATTTACAAGTAATAGTACAGTTAATTATATAAAA [XGTACX_site4856]
The “gcPBM binding intensity (ln)” value of the first is higher: 7.26 for the first, 6.95 for the second.

Going from “ATTATATAGCTAAAAAAAATAAATTAAAAATATTAA [TGCATGCA_negctrl_site505]” to “AAGAATGTTATTAGTACACACAATTATTATAGAAAT [CACACA_site7714]”, the “gcPBM binding intensity (ln)” value rises from 6.65 to 6.94.

First: AATGTACAAATACGTACACACATATTTATATTTATA [CACACA_site6833]
Second: TAGTTTTTTATATATTGTACAAATAATATATGATAT [XGTACX_site4220]
The “gcPBM binding intensity (ln)” value of the first is higher: 7.46 for the first, 7.12 for the second.

Going from “AGTGATTATTAATAATGTACATATCTATAAATATAT [XGTACX_site4734]” to “TTTTTTTTTTTTTTCTTACAATTTATTGAACAAATG [XGTACX_negctrl_site515]”, the “gcPBM binding intensity (ln)” value rises from 7 to 7.11.

Going from “TATATATTTCATCCTTGTACACATTTGTGTTTACAT [XGTACX_site1132]” to “GTATTGCATGAGGACACACACAAAAAAAATATAGAT [CACACA_site6500]”, the “gcPBM binding intensity (ln)” value rises from 7.02 to 7.4.

Compared with “AATAAATAAATATATATATATATATATATATATATA [CACACA_negctrl_site365]”, “ACAATTTACACTTAAACACACAAAAAAAAGTTATAT [CACACA_site7056]” is lower in “gcPBM binding intensity (ln)” value: 9.02 for the first, 7.18 for the second.

Compared with “TATCAAAATTGTAATTGTACTTGTAAGTGGATATAT [XGTACX_site5949]”, “ATATATTGCACTTTTTGTACATAATGAAAAATTTTT [XGTACX_site8223]” is higher in “gcPBM binding intensity (ln)” value: 7.12 for the first, 8.1 for the second.

Compared with “TACATATTGATATATACACACAAAAAAATAAATTCT [CACACA_site6198]”, “ACCTTAATAAAAAAAAGTACAAACATGTTCAAATTG [XGTACX_site1556]” is higher in “gcPBM binding intensity (ln)” value: 7 for the first, 7.34 for the second.

Going from “AATTCGTACCTCATTTGTACATATATATATATATAT [XGTACX_site5513]” to “TTTTTTATAGTACATTACCAAAAAAAAAAAAAAAAA [GTGCAC_negctrl_site549]”, the “gcPBM binding intensity (ln)” value falls from 9.34 to 7.07.

Going from “CATACACCCATACATACACACATACAGATATATATA [CACACA_site5123]” to “TCACCATATAAACGTGCACACTACAAAAATATATAA [CACACA_site5413]”, the “gcPBM binding intensity (ln)” value rises from 7.45 to 11.

Going from “CTTTTATTTTATTTTAGTACGCAACATTCTCTATAT [XGTACX_site7279]” to “TATTTATTTAAAAATTGTACGTAGGATTATACACTT [XGTACX_site286]”, the “gcPBM binding intensity (ln)” value falls from 7.17 to 7.04.

Compared with “ATATAAATATTATAATGTACATATAATATATTTATT [XGTACX_site5212]”, “ATCTCTGTATGTTAGACACACATATTTTAATATGTT [CACACA_site4244]” is lower in “gcPBM binding intensity (ln)” value: 6.9 for the first, 6.83 for the second.

Compared with TAAAATTTGTACATAGTGCAATTTTTTTTTTTTTTT, “AGCAAAACATAAAATAGTACACATTTAACAAAAAAA [XGTACX_site2921]” is lower in “gcPBM binding intensity (ln)” value: 8.15 for the first, 7.24 for the second.

Going from “TTTTATCATCTTTTTACATTATGTATAAATATTTTC [CACACA_negctrl_site206]” to “AAAAGAACAATGAAGTGTACTAATAATTATTTATGT [XGTACX_site6649]”, the “gcPBM binding intensity (ln)” value rises from 6.99 to 7.22.

First: ATATAATATATTTTTGAACACACAATATATATATAT [CACACA_site9368]
Second: TAACTAATATATAAAACACACATCATAAAAATATAA [CACACA_site768]
The “gcPBM binding intensity (ln)” value of the first is higher: 9.01 for the first, 6.96 for the second.

Compared with “TTTTGTTGAAAAGTAAGATATTCCAACATGTTTTTA [CACACA_negctrl_site391]”, “ATATCATTTTCCTGCACACATAAATTTATATAATAT [CACACA_site1048]” is higher in “gcPBM binding intensity (ln)” value: 6.69 for the first, 7.82 for the second.

First: ACACATAAATGAATAAATAAATAAATATAAATATAA [CACACA_negctrl_site1784]
Second: TTCTTACATGAGTGTACACACTTTTTTTCAGAAAAT [CACACA_site4215]
The “gcPBM binding intensity (ln)” value of the first is lower: 6.73 for the first, 7.39 for the second.

First: GGTGGGGAGGAGTAATGTACAAATTAACATATTATG [XGTACX_site6666]
Second: AATAGTCGGGTGCATACACACCTTAAATATAATATA [CACACA_site8271]
The “gcPBM binding intensity (ln)” value of the first is lower: 8.48 for the first, 11.3 for the second.

Compared with “TTATAAAATATTTATGCATGTGAAGAATATTATAAA [TGCATGCA_site1047]”, GAAAAAAGTATCAAGGTGCGTATATACATCAAAATA is higher in “gcPBM binding intensity (ln)” value: 7.12 for the first, 9.51 for the second.

Compared with “TATATATTATAAAATTGTACATATATTAAATTTTTT [XGTACX_site5852]”, “AAATGTTGAGCAGTACAAAAAAAAAAAAAAAAAAAA [GTGCAC_negctrl_site518]” is higher in “gcPBM binding intensity (ln)” value: 6.93 for the first, 7.06 for the second.

Going from “CAAAACAAAACGTATGCACACAATTAAAATATTAAA [CACACA_site5815]” to “TTTTTTTTTTAATTGGGTACATATATAATTTAAGAA [XGTACX_site2732]”, the “gcPBM binding intensity (ln)” value falls from 7.78 to 7.02.

First: CATTTATATAAAAGAACACACATATAAAATATTATT [CACACA_site3601]
Second: AAGATACCAATGAAATGTACATATATATAAATATAA [XGTACX_site2135]
The “gcPBM binding intensity (ln)” value of the first is lower: 6.96 for the first, 7.05 for the second.

Compared with “ATATATATATATGTATGTACGTATGTATTTACTGCT [XGTACX_site3839]”, “TTCATACATATTTGAAGTACATTTAAAAATGTCCTT [XGTACX_site747]” is lower in “gcPBM binding intensity (ln)” value: 8.95 for the first, 6.77 for the second.

Compared with “TCCAATATATTTATGAGTACTTATAAATTATACGTT [XGTACX_site742]”, “GAAGTAATTTCATATACACACATATACATACATACA [CACACA_site6753]” is higher in “gcPBM binding intensity (ln)” value: 7.4 for the first, 7.45 for the second.

With “TTTGAATAAAAACAAAAAATTAAATTAAATTAAATA [CACACA_negctrl_site312]” the “gcPBM binding intensity (ln)” value was 6.72.

From the supplement of paper PMC11417369
